Assay results taken from patent US9221811B2, “Chromone derivative having osteogenesis promoting effect” (Daiichi Sankyo Company, Limited, priority 2012, dated 2015).
Structures can show the parent of a compound that is named as a salt. The name of at least one read-out is uncertain.

Test system: ST2 cells, murine bone marrow-derived stromal cells
Assay: Osteoblast differentiation test (alkaline phosphatase activity)
Type: cell-based
Settings: four days of culturing, control (0.1% DMSO) set at 100%

Cc1c([C@H]2CCCN2C)oc2c(C)c(O)ccc2c1=O [Example 2-4, 7-Hydroxy-3,8-dimethyl-2-[(2R)-1-methylpyrrolidin-2-yl]-4H-chromen-4-one]
Concentration exhibiting an increase of 100% or more in alkaline phosphatase activity (2-fold or more relative to the control): 0.043 µM

CCN1CCC[C@@H]1c1oc2c(C)c(O)ccc2c(=O)c1C [Example 3-2, 2-[(2R)-1-Ethylpyrrolidin-2-yl]-7-hydroxy-3,8-dimethyl-4H-chromen-4-one]
Concentration exhibiting an increase of 100% or more in alkaline phosphatase activity (2-fold or more relative to the control): 0.029 µM

Cc1c([C@H]2CCCN2CCO)oc2c(C)c(O)ccc2c1=O.Cl [Example 4-2, 7-Hydroxy-2-[(2R)-1-(2-hydroxyethyl)pyrrolidin-2-yl]-3,8-dimethyl-4H-chromen-4-one hydrochloride]
Concentration exhibiting an increase of 100% or more in alkaline phosphatase activity (2-fold or more relative to the control): 0.093 µM

CC(=O)N1CCC(c2oc3c(C)c(O)ccc3c(=O)c2C)CC1 [Example 6, 2-(1-Acetylpiperidin-4-yl)-7-hydroxy-3,8-dimethyl-4H-chromen-4-one]
Concentration exhibiting an increase of 100% or more in alkaline phosphatase activity (2-fold or more relative to the control): 0.006 µM

CCOC(=O)N1CCC(c2oc3c(C)c(O)ccc3c(=O)c2C)CC1 [Example 7-3, Ethyl 4-(7-hydroxy-3,8-dimethyl-4-oxo-4H-chromen-2-yl)piperidine-1-carboxylate]
Concentration exhibiting an increase of 100% or more in alkaline phosphatase activity (2-fold or more relative to the control): 0.015 µM

Cc1c(C2CCN(S(C)(=O)=O)CC2)oc2c(C)c(O)ccc2c1=O [Example 8, 7-Hydroxy-3,8-dimethyl-2-[1-(methylsulfonyl)piperidin-4-yl]-4H-chromen-4-one]
Concentration exhibiting an increase of 100% or more in alkaline phosphatase activity (2-fold or more relative to the control): 0.011 µM

CCNC(=O)N1CCC(c2oc3c(C)c(O)ccc3c(=O)c2C)CC1 [Example 9, N-Ethyl-4-(7-hydroxy-3,8-dimethyl-4-oxo-4H-chromen-2-yl)piperidine-1-carboxamide]
Concentration exhibiting an increase of 100% or more in alkaline phosphatase activity (2-fold or more relative to the control): 0.042 µM

Cc1c(C2CCN(C(=O)N(C)C)CC2)oc2c(C)c(O)ccc2c1=O [Example 10, 4-(7-Hydroxy-3,8-dimethyl-4-oxo-4H-chromen-2-yl)-N,N-dimethylpiperidine-1-carboxamide]
Concentration exhibiting an increase of 100% or more in alkaline phosphatase activity (2-fold or more relative to the control): 0.012 µM

COCC(=O)N1CCC(c2oc3c(C)c(O)ccc3c(=O)c2C)CC1 [Example 11, 7-Hydroxy-2-[1-(methoxyacetyl)piperidin-4-yl]-3,8-dimethyl-4H-chromen-4-one]
Concentration exhibiting an increase of 100% or more in alkaline phosphatase activity (2-fold or more relative to the control): 0.005 µM

Cc1c(C2CCN(S(=O)(=O)N(C)C)CC2)oc2c(C)c(O)ccc2c1=O [Example 12, 4-(7-Hydroxy-3,8-dimethyl-4-oxo-4H-chromen-2-yl)-N,N-dimethylpiperidine-1-sulfonamide]
Concentration exhibiting an increase of 100% or more in alkaline phosphatase activity (2-fold or more relative to the control): 0.006 µM

CCCC(=O)N1CCC(c2oc3c(C)c(O)ccc3c(=O)c2C)CC1 [Example 13, 2-(1-Butanoylpiperidin-4-yl)-7-hydroxy-3,8-dimethyl-4H-chromen-4-one]
Concentration exhibiting an increase of 100% or more in alkaline phosphatase activity (2-fold or more relative to the control): 0.009 µM

CCS(=O)(=O)N1CCC(c2oc3c(C)c(O)ccc3c(=O)c2C)CC1 [Example 14, 2-[1-(Ethylsulfonyl)piperidin-4-yl]-7-hydroxy-3,8-dimethyl-4H-chromen-4-one]
Concentration exhibiting an increase of 100% or more in alkaline phosphatase activity (2-fold or more relative to the control): 0.006 µM

Cc1c(C2CCN(C(=O)CC(F)(F)F)CC2)oc2c(C)c(O)ccc2c1=O [Example 15, 7-Hydroxy-3,8-dimethyl-2-[1-(3,3,3-trifluoropropanoyl)piperidin-4-yl]-4H-chromen-4-one]
Concentration exhibiting an increase of 100% or more in alkaline phosphatase activity (2-fold or more relative to the control): 0.005 µM

CCC(=O)N1CCC(c2oc3c(C)c(O)ccc3c(=O)c2C)CC1 [Example 16, 7-Hydroxy-3,8-dimethyl-2-(1-propanoylpiperidin-4-yl)-4H-chromen-4-one]
Concentration exhibiting an increase of 100% or more in alkaline phosphatase activity (2-fold or more relative to the control): 0.0007 µM

Cc1c(C2CCN(C(=O)C(C)C)CC2)oc2c(C)c(O)ccc2c1=O [Example 17, 7-Hydroxy-3,8-dimethyl-2-[1-(2-methylpropanoyl)piperidin-4-yl]-4H-chromen-4-one]
Concentration exhibiting an increase of 100% or more in alkaline phosphatase activity (2-fold or more relative to the control): 0.017 µM

Cc1c(C2CCN(C(=O)C(C)(C)C)CC2)oc2c(C)c(O)ccc2c1=O [Example 18, 2-[1-(2,2-Dimethylpropanoyl)piperidin-4-yl]-7-hydroxy-3,8-dimethyl-4H-chromen-4-one]
Concentration exhibiting an increase of 100% or more in alkaline phosphatase activity (2-fold or more relative to the control): 0.054 µM

Cc1c(C2CCN(C(=O)c3ccccc3)CC2)oc2c(C)c(O)ccc2c1=O [Example 19, 7-Hydroxy-3,8-dimethyl-2-[1-(phenylcarbonyl)piperidin-4-yl)-4H-chromen-4-one]
Concentration exhibiting an increase of 100% or more in alkaline phosphatase activity (2-fold or more relative to the control): 0.069 µM

Cc1c(C2CCN(c3nccs3)CC2)oc2c(C)c(O)ccc2c1=O [Example 20, 7-Hydroxy-3,8-dimethyl-2-[1-(1,3-thiazol-2-yl)piperidin-4-yl]-4H-chromen-4-one]
Concentration exhibiting an increase of 100% or more in alkaline phosphatase activity (2-fold or more relative to the control): 0.004 µM

Cc1c(C2CCN(c3ccccn3)CC2)oc2c(C)c(O)ccc2c1=O [Example 21, 7-Hydroxy-3,8-dimethyl-2-[1-(pyridin-2-yl)piperidin-4-yl]-4H-chromen-4-one]
Concentration exhibiting an increase of 100% or more in alkaline phosphatase activity (2-fold or more relative to the control): 0.007 µM

Cc1c(C2CCN(c3cnccn3)CC2)oc2c(C)c(O)ccc2c1=O [Example 22, 7-Hydroxy-3,8-dimethyl-2-[1-(pyrazin-2-yl)piperidin-4-yl]-4H-chromen-4-one]
Concentration exhibiting an increase of 100% or more in alkaline phosphatase activity (2-fold or more relative to the control): 0.014 µM

CNC(=O)c1ccc(CN2CCC(c3oc4c(C)c(O)ccc4c(=O)c3C)CC2)cc1 [Example 23-3, 4-{[4-(7-Hydroxy-3,8-dimethyl-4-oxo-4H-chromen-2-yl)piperidin-1-yl]methyl}-N-methylbenzamide]
Concentration exhibiting an increase of 100% or more in alkaline phosphatase activity (2-fold or more relative to the control): 0.041 µM

Cc1c(C2CCN(Cc3ccc(C(=O)N(C)C)cc3)CC2)oc2c(C)c(O)ccc2c1=O [Example 24, 4-[[4-(7-Hydroxy-3,8-dimethyl-4-oxo-4H-chromen-2-yl)piperidin-1-yl]methyl]-N,N-dimethylbenzamide]
Concentration exhibiting an increase of 100% or more in alkaline phosphatase activity (2-fold or more relative to the control): 0.030 µM

CC(=O)N1CCCC(c2oc3c(C)c(O)ccc3c(=O)c2C)C1 (stereo not drawn) [Example 25-2, 2-(1-Acetylpiperidin-3-yl)-7-hydroxy-3,8-dimethyl-4H-chromen-4-one]
Concentration exhibiting an increase of 100% or more in alkaline phosphatase activity (2-fold or more relative to the control): 0.013 µM

Cc1c(C2CCCN(Cc3ccc(C(=O)N4CCOCC4)cc3)C2)oc2c(C)c(O)ccc2c1=O (stereo not drawn) [Example 26-4, 7-Hydroxy-3,8-dimethyl-2-{1-[4-(morpholin-4-ylcarbonyl)benzyl]piperidin-3-yl}-4H-chromen-4-one]
Concentration exhibiting an increase of 100% or more in alkaline phosphatase activity (2-fold or more relative to the control): 0.066 µM

CNC(=O)c1ccc(CN2CCCC(c3oc4c(C)c(O)ccc4c(=O)c3C)C2)cc1 (stereo not drawn) [Example 28, 4-{[3-(7-Hydroxy-3,8-dimethyl-4-oxo-4H-chromen-2-yl)piperidin-1-yl]methyl}-N-methylbenzamide]
Concentration exhibiting an increase of 100% or more in alkaline phosphatase activity (2-fold or more relative to the control): 0.056 µM

Cc1c(C2CCCN(Cc3ccc(C(=O)N(C)C)cc3)C2)oc2c(C)c(O)ccc2c1=O (stereo not drawn) [Example 29, 4-[[3-(7-Hydroxy-3,8-dimethyl-4-oxo-4H-chromen-2-yl)piperidin-1-yl]methyl]-N,N-dimethylbenzamide]
Concentration exhibiting an increase of 100% or more in alkaline phosphatase activity (2-fold or more relative to the control): 0.087 µM

Cc1c(C2CCCN(CC(=O)Nc3ccc(CN4CCOCC4)cc3)C2)oc2c(C)c(O)ccc2c1=O (stereo not drawn) [Example 30-2, 2-[3-(7-Hydroxy-3,8-dimethyl-4-oxo-4H-chromen-2-yl)piperidin-1-yl]-N-[4-(morpholin-4-ylmethyl)phenyl]acetamide]
Concentration exhibiting an increase of 100% or more in alkaline phosphatase activity (2-fold or more relative to the control): 0.054 µM

C=CCc1c(O)ccc2c(=O)c(C)c(C3CCN(C(=O)CC)CC3)oc12 [Example 31-4, 8-Allyl-7-hydroxy-3-methyl-2-(1-propanoylpiperidin-4-yl)-4H-chromen-4-one]
Concentration exhibiting an increase of 100% or more in alkaline phosphatase activity (2-fold or more relative to the control): 0.031 µM

CCC(=O)N1CCC(c2oc3c(C4CC4)c(O)ccc3c(=O)c2C)CC1 [Example 33-2, 8-Cyclopropyl-7-hydroxy-3-methyl-2-(1-propanoylpiperidin-4-yl)-4H-chromen-4-one]
Concentration exhibiting an increase of 100% or more in alkaline phosphatase activity (2-fold or more relative to the control): 0.002 µM

CCC(=O)N1CCC(c2oc3c(CC4CC4)c(O)ccc3c(=O)c2C)CC1 [Example 34-5, 8-(Cyclopropylmethyl)-7-hydroxy-3-methyl-2-(1-propanoylpiperidin-4-yl)-4H-chromen-4-one]
Concentration exhibiting an increase of 100% or more in alkaline phosphatase activity (2-fold or more relative to the control): 0.057 µM

CC(=O)N1CCN(c2oc3c(C)c(O)ccc3c(=O)c2C)CC1.Cl [Example 37-5, 2-(4-Acetylpiperazin-1-yl)-7-hydroxy-3,8-dimethyl-4H-chromen-4-one hydrochloride]
Concentration exhibiting an increase of 100% or more in alkaline phosphatase activity (2-fold or more relative to the control): 0.032 µM

Cc1c(N2CCN(C)CC2)oc2c(C)c(O)ccc2c1=O [Example 38, 7-Hydroxy-3,8-dimethyl-2-(4-methylpiperazin-1-yl)-4H-chromen-4-one dihydrochloride]
Concentration exhibiting an increase of 100% or more in alkaline phosphatase activity (2-fold or more relative to the control): 0.090 µM

Cc1c(N2CCCC(O)C2)oc2c(C)c(O)ccc2c1=O.Cl (stereo not drawn) [Example 39, 7-Hydroxy-2-(3-hydroxypiperidin-1-yl)-3,8-dimethyl-4H-chromen-4-one hydrochloride]
Concentration exhibiting an increase of 100% or more in alkaline phosphatase activity (2-fold or more relative to the control): 0.088 µM
